# Test results reported in PubChem BioAssay (NCI).
# Where a structure was tested more than once in an assay, its records may differ in their call.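 The endpoint reported here, percent growth, reads 100 for growth as untreated, 0 for no net growth and -100 for all cells dead.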 A number of entries come with more than one value. Only these are listed. The calls were made as follows: active = growth percent below 10; inactive = the rest. The source may hold further records. These are repeated runs of one drug, at its own concentration, as given; each value is one run. Counts like (3×) give the number of equal values in this list.
# Assays:
# K-562 leukemia = experiment: NCI-60 one-dose screen, 48 h (100 = growth as untreated, 0 = no growth, -100 = all killed); settings: 25 µM
# MALME-3M melanoma = experiment: as above; settings: 0.25 µM
smiles,measurement,setting,value
COc1cccc2c1C(=O)c1c(O)c3c(c(O)c1C2=O)C[C@@](O)(C(=O)CO)C[C@@H]3OC1CC(N)C(O)C(C)O1 (stereo not given in full),growth,K-562 leukemia; runs of 1992,"active: -11.9, 1.49, 3.76, -52.2, -31.7, -27.7, -26.3, -7.58, 0.535, -16.4, -41.3, -30.2, 0.124, 0.282, -41.6, -18, -36.4, -28.2 (2×), -10.9, -35.9, -14, 6.02, -13, -67, 0, 6.34, -40.4, -57, -20.7, -57.5, -30.9, 2.18, -22.6, -19.3, -0.94, -5.69, 2.69 (2×), -26.8, -41.7, -32.6, -44.8, -12.6, -25.4, -47.8, -35.3, 5.48, -9.73, -19.2, 2.24, -35.7, -66, -25, -5.5, 0.908, -0.82, -53.7, -15.3, 1.78, 0.443, -6.35, -2.13, -16.1, -28.3, -17.2, -29, 0.607, -38.3, -21.6, -41.4 (2×), -61.7, -3.33, -5.17, -7.64, -9.36, -5.25, -40, -46.1, -17.3, -4.72, 8.67, -8.98, 4.43, -59.9, -21.1, -27.8, -35.5, 3.68 (2×), -4.68, -34, 0.281, -4.02, 3.74, -46.8, -45.1, -9.39, 5.57, -7.92, 3.72, -3.98, -26.5, -13.3, -14.6, 2.46, 5, -20.4, 1.48, -30.5, 0.9% and inactive: 25.4, 11.4, 16.6, 31.2, 17.1, 19.9, 13.8, 41.8, 30.2%"
same,growth,K-562 leukemia; runs of 1993,"active: 1.22, 5.8, 1.94, -37.6, -20, -26.5 (2×), -28.2, 2.87, -11.7, -12.8, -14, -45.1, -17.2, -35.2, 0.889, 1.17, 0.334, -68.6, -15.4, -8.62, -11, 0.26, -9.8, -36.3, -40.3, -46.1, -15.6, -30.4, -9.69, -27.8, -1.75, 2.71, -13.2, -21.9, -30.9, -5, -29.6% and inactive: 15.4, 105, 31.7, 26.3, 50.9, 13.6, 15.3%"
same,growth,K-562 leukemia; runs of 1994,"active: -12.1, -22.2, -42.3, -1.65, 1.9, -0.552, 2.31, -19.1, 5.52, 9.92, 3.25, 3.88, -40.4, -9.07, -48.8, -53.9, 1.11, -18.2, -25.4, 5.05, 1.07, -35.9, 1.22, -39.5, 3.02, 3.42, -53, -49.2% and inactive: 109, 31.3, 15.1, 14%"
same,growth,K-562 leukemia; runs of 1995,"active: -43.6, -16.4, 8.14, -17.7, -39.9, -60, 0.761, 0.61, -11.8, -51.6, 6.05, -43, -30.7, -24.3, -20.7, -45.7, -42.9, -36.2, -3.53, -38.3, -50.8, -1.55, -8.91, -69.5, -36.1, 9.22, -26.7, 2.3, -18.6, -53.3, -8.2, 0.778, -24.8, -69.1, -26.3, -58.6% and inactive: 20.4%"
same,growth,K-562 leukemia; runs of 1996,"active: -46.2, 3.74, -41, 4.2, -49.6, -50, -16.4, 8.27, 6.74, -52.1, 8.96, -76.1, -0.365, -7.14, -100, -51, -55, 6.25, 0.233, 3.72, -49.4, -59.8, -58.9, -27.1, -3.61, 1.22, 4.28, -7.91, -21.5, -33, -35.1, -42.4, -46.5, -45.4, 0.858, -26.3, -83.2, -51.9, -26.5, -1.04, -59.5, -23.8, -70.2, -43.6% and inactive: 17.2, 101, 72.3, 90.3, 13.1, 10.6%"
same,growth,K-562 leukemia; runs of 1997,"active: 6.6, 1.83, -38, -50.3, -50.4, -67.2, -24.7, -24.3, 8.34, -11.5, 6.39, -3.76, 0.0635, 0.24, -13.2, 9.28, 8.84, 3.14, -41.4, 4.38, -37.1, -8.1, -28, -42.7, 1.27, -33.3, -53.9% and inactive: 23.4, 20.8, 11.1, 49.4, 24.5 (2×), 11.3, 18.7, 73.4%"
same,growth,K-562 leukemia; runs of 1998,"active: -44.9, -3.48, 8.66, 6.11, 2.89, -18.8, 8.79, -50.2, -22, 4.08, 0.506, 0.244, -72.1, -24.6, -24.9, -19, -15.9% and inactive: 16.4%, 87.5%, 14.2%"
same,growth,K-562 leukemia; runs of 1999,"active: -15.5, 0.728, 3.97, -17.6, -5.52, 0.502, -51.9, 4.64, 0.175, -87.1, -54.6, 2.42, 3.03, -96.5, 0.793, 4.2, 6.43%"
same,growth,K-562 leukemia; runs of 2000,"active: -88%, 3.16%, -32.1% and inactive: 15.9%"
same,growth,MALME-3M melanoma; runs of 2006,"inactive: 36.8%, 10.2%"
same,growth,MALME-3M melanoma; runs of 2007,"active: 7.79, -17.6, -3.95, 9.09, 2.18, -8.96, -7.95, 4.02, 7.59, 7.06% and inactive: 21.7, 27.5 (2×), 26.3, 28.9, 23.2, 22.8, 18.9 (2×), 18.5, 30.8, 31.4, 86.8, 43.8, 27.3, 15, 37.1, 29.9, 49.6, 28.4, 32.1, 40.4, 69.5, 19.2, 28.5, 27.1, 19.8, 29.5, 17.1, 18.3, 18.1, 12, 25.5%"
same,growth,MALME-3M melanoma; runs of 2008,"inactive: 30.8, 34.5, 18.1, 34.2, 35.1, 30.2, 27.3 (2×), 28.6, 24.2, 34.9, 70.5, 47.7, 22.1 (2×), 12, 12.7, 18.7, 11.3, 108, 28.4, 23.3, 20.6, 27.5, 46.8, 17.1, 29.4, 21.6, 21.7% and active: -5.07, -20.9, 2.88, 9.43, -14.7, -7.85, -11.8, -10.8, -2.09, 6.93, 8.13, -2.01, -0.0777, -0.766, -22.5, 5.52, -11.7, -5.94, -9.37, -15.4, -25.4, 7.47, 9.31, 3.64, 6.36, 1.72, 0.668, -1.24%"
same,growth,MALME-3M melanoma; runs of 2009,"inactive: 25.5 (2×), 22.7, 28.3, 40.1, 26.7, 29.5, 37.9, 44.3, 31.7, 16.4 (2×), 27.1, 27.9, 12.2, 24.5, 18.9, 33.3, 17 (2×), 14.1, 19.1, 18.1, 25.8, 21.4 (2×), 23.6, 21.8, 17.8, 18, 35.1, 36.1, 20.6, 39, 10.5, 32.4, 15, 27.3, 21.3, 16.1, 60.9, 34.7, 19.5, 24.6, 36, 13% and active: 2.33, -5.41, 3.15, 9.2, -11.2, -6.82, -7.09, 6.8, 6.52, -1.28, 7.76, -3.24, 9.69, 1.97, 8.16, 5.6, -12.3, 7.61, -10.3, 0.67, -19.2, 8.09%"
same,growth,MALME-3M melanoma; runs of 2010,"inactive: 10.1, 44.3, 48.2, 10.7, 27.7, 20.8, 15, 49.6, 38.3, 28.5, 11, 32, 38.9, 24.2, 18.7, 23.5, 45.1, 30.9, 19.8, 42.3, 47.4, 23.9, 29.2, 20, 12.8, 30.4, 27.2 (2×), 29.6, 22.3, 39.3, 14.6, 17.6, 28.2, 11.7, 28.8, 17, 23.3, 30.1, 33.1, 22.8% and active: 9.68, -2.08, -1.86, 4.92, -5.26, -5.05, 9.97, 5.83, -1.4, 4.77%"
same,growth,MALME-3M melanoma; runs of 2011,"inactive: 35.8, 34.6, 33.9, 33.7, 35, 46.6, 42.8, 36.3, 46.3, 26.5, 34.7, 30.5 (2×), 27.9, 43.9, 37 (2×), 41.5, 39.8, 37.6 (2×), 46.2, 38.1, 45.7, 27.4, 44.6, 44.4, 41.8, 19.8, 12.9, 28.3, 16.8, 22.8, 22.6, 26.9, 21.5, 24.1, 26.7, 32.5, 37.1, 28.2, 32.7, 37.8, 27.7, 31.4, 20.3, 14.8, 24.6, 38.3, 30.3, 17.4, 32, 34.5, 31.5, 32.2, 66.2, 47.2%"
